US11178870B2 (priority 2017, dated 2021)

Key:
Magnaporthe grisea = format: in vivo; conditions: Blast on rice
Phytophthora infestans = format: in vivo; conditions: Late blight on tomato

Row | SMILES | Test A control value (Magnaporthe grisea) | Test F control value (Phytophthora infestans)
1 | CCn1c(-c2c(F)cccc2F)c(-c2cnc(OC)o2)cc(Cl)c1=O [Compound 130] | L (L shows the control value of 50% or less) | L (L shows the control value of 50% or less)
2 | CCn1c(-c2ccc(F)cc2C)c(-n2cc(Cl)cn2)cc(Br)c1=O [Compound 171] | H (H shows the control value more than 50%) | L (L shows the control value of 50% or less)
3 | CCn1c(-c2c(F)cc(F)cc2F)c(-n2cc(C=O)cn2)cc(Cl)c1=O [Compound 123] | L (L shows the control value of 50% or less) | L (L shows the control value of 50% or less)
4 | CCn1c(-c2c(F)cccc2F)c(-c2cccnc2Cl)cc(C)c1=O [Compound 66] | H (H shows the control value more than 50%) | L (L shows the control value of 50% or less)
5 | CCn1c(-c2ccc(F)cc2Br)c(-n2cc(Cl)cn2)cc(Cl)c1=O [Compound 165] | H (H shows the control value more than 50%) | L (L shows the control value of 50% or less)
6 | CCn1c(-c2ccc(F)cc2F)c(-n2cc(Cl)cn2)cc(Br)c1=O [Compound 150] | H (H shows the control value more than 50%) | L (L shows the control value of 50% or less)
7 | CCn1c(-c2c(F)cc(F)cc2F)c(-n2cc(Cl)c(C)n2)cc(Br)c1=O [Compound 144] | H (H shows the control value more than 50%) | L (L shows the control value of 50% or less)
8 | O=c1c(Cl)cc(-n2cc(Cl)cn2)c(-c2c(F)cc(F)cc2F)n1CC(F)F [Compound 110] | H (H shows the control value more than 50%) | L (L shows the control value of 50% or less)
9 | CCn1c(-c2c(F)cc(F)cc2F)c(-c2cnco2)cc(Br)c1=O [Compound 89] | H (H shows the control value more than 50%) | L (L shows the control value of 50% or less)
10 | CCn1c(-c2c(F)cc(F)cc2F)c(-n2c(Cl)nc(Cl)c2Cl)cc(Cl)c1=O [Compound 137] | H (H shows the control value more than 50%) | L (L shows the control value of 50% or less)
11 | CCn1c(-c2c(F)cc(OC)cc2F)c(-c2cccnc2Cl)cc(Cl)c1=O [Compound 80] | H (H shows the control value more than 50%) | L (L shows the control value of 50% or less)
12 | CCn1c(-c2c(F)cc(F)cc2F)c(-n2cc([N+](=O)[O-])cn2)cc(Cl)c1=O [Compound 161] | H (H shows the control value more than 50%) | L (L shows the control value of 50% or less)
13 | CCn1c(-c2c(F)cc(F)cc2F)c(-n2cccc2)cc(Cl)c1=O [Compound 132] | H (H shows the control value more than 50%) | L (L shows the control value of 50% or less)
14 | COc1cc(F)c(-c2c(-n3cc(Cl)cn3)cc(Cl)c(=O)n2CC(F)F)c(F)c1 [Compound 111] | H (H shows the control value more than 50%) | L (L shows the control value of 50% or less)
15 | CN1C(=O)CCC(c2cccs2)=C1c1c(F)cccc1F [Compound 1] | H (H shows the control value more than 50%) | L (L shows the control value of 50% or less)
16 | CCn1c(-c2c(F)cccc2F)c(-c2cnc(NC)o2)cc(Cl)c1=O [Compound 134] | L (L shows the control value of 50% or less) | L (L shows the control value of 50% or less)
17 | CCn1c(-c2ccc(F)cc2C)c(-n2cc(Cl)cn2)ccc1=O [Compound 168] | H (H shows the control value more than 50%) | L (L shows the control value of 50% or less)
18 | CCn1c(-c2ccc(F)cc2Cl)c(-n2cc(Cl)cn2)cc(Cl)c1=O [Compound 157] | H (H shows the control value more than 50%) | L (L shows the control value of 50% or less)
